# From ChEMBL document CHEMBL4888484, “Replenishing the malaria drug discovery pipeline: Screening and hit evaluation of the MMV Hit Generation Library 1 (HGL1) against asexual blood stage Plasmodium falciparum ,using a nano luciferase reporter read-out” (2022)
# Hit rate of the full screen: of about 4,800 compounds, about 420 (8.8%) showed an effect of 50% or more. Some of the results follow.
# System: Plasmodium falciparum
# Assay: Confirmatory screen in NF54 nanoGlo assay, in single point, at 2uM, 72h
# Type: functional, Erythrocyte
# Conditions: timepoint 72 hour
row,Compound,% Inhibition [%]
1,Cc1nnc(-c2ccc3ccn(CC(=O)Nc4ccc(F)c(Cl)c4)c3c2)o1,78
2,COc1nc(NC2CCS(=O)(=O)CC2)ncc1F,75
3,Cc1noc(NCc2ccc(Cl)cc2)n1,39
4,CC1(C)COCCN1C(=O)Cc1cnn(-c2ccccc2)n1,1
5,CC(C)CC(=O)Nc1ccc2c(c1)C(N1CCC(C)CC1)=Nc1ccccc1O2,0
6,Cc1cnc(NC(=O)c2ccc3ncoc3c2)c(Br)c1,4
7,Nc1c(-c2ccccc2)nsc1C(=O)NCCc1cccs1,-5
8,CC1(C)NC(=O)N(CNc2ccc(Br)cc2)C1=O,-14
9,Cc1noc(C)c1NS(=O)(=O)c1ccc2c(c1)OCCCO2,1
10,CC(C)(C)OC(=O)CN(c1cc(F)cc(F)c1)S(=O)(=O)c1ccc2nncn2c1,-7
11,Cc1cc(NC(=O)[C@@H](c2ccccc2)N2CCCCC2=O)sn1,7
12,CCC(C(=O)Nc1ccc2c(c1)CN(CCc1ccc(OC)c(OC)c1)C(=O)C(C)O2)c1ccccc1 (configuration not stated),94
13,Cc1c(C(c2ccc(-c3ccccc3Cl)o2)c2c(C)n(C)n(-c3ccccc3)c2=O)c(=O)n(-c2ccccc2)n1C,3
14,O=C(NCCN1CCCCC1)c1cn2ccnc(-c3ccccc3)c2n1,-1
15,CCOc1ccc(-c2cc(NC(=O)c3cc(-c4cccnc4)nc4ccccc34)on2)cc1OCC,94
16,Cc1c(-c2ccc(F)cc2)[nH]c2ccc(CNc3nccc(N(C)C)n3)cc12,29
17,C[C@H](NS(C)(=O)=O)C(=O)NC(C)(C)Cc1ccccc1Cl,-5
18,COc1ccc(NC(=O)[C@@H](c2ccc(OC)c(OC)c2)N(Cc2ccccc2)C(=O)Cn2nnc3ccccc32)cc1,-11
19,COc1ccc(CC(=O)Nc2cc(C)n(-c3cccc(Cl)c3)n2)cc1,81
20,C[C@H](NC(=O)c1ccc(Cl)o1)c1nnc2n1CCCCC2,-5
21,CCN(CC(=O)Nc1ccccc1OC)C(=O)c1ccc(S(=O)(=O)N2CCOCC2)cc1,10
22,CCCS(=O)(=O)NC1CCC2(CC1)OCCO2,-11
23,Cc1ccnc(N(C(=O)c2cc(Cl)ccc2Cl)C(=O)c2cc(Cl)ccc2Cl)c1,-9
24,CCCC1(c2ccncc2)CC(C)OC1=O (configuration not stated),-1
25,Cc1cnc(CC[C@H]2CCCN2C(=O)CCCc2ccccc2)n1C,-6
26,CCOC(=O)Nc1nc(-c2ccccc2)c(C(=O)c2ccc(S(C)(=O)=O)cc2)s1,6

row,Compound,% Inhibition [%]
1,CNC(=O)[C@@H]1C[C@H](NCc2cc(OC)c(OC)c(OC)c2)CN1CC(c1ccccc1)c1ccccc1,63
2,Cc1cccc(Cn2ccc(-c3cccc(OCc4ccc(Cl)cc4Cl)c3)n2)c1,-4
3,O=C(NCCCN1CCOCC1)C1C2CCCC21 (configuration not stated),2
4,CCc1ccc(C(NC(=O)C2CCNC2)C(C)(C)C)o1 (configuration not stated),-8
5,NS(=O)(=O)N[C@H]1CCCc2sc(Cl)cc21,8
6,COc1ccc(CC(=O)NCCn2c(C(F)(F)F)nc3ccccc32)cc1,42
7,Cc1nnc(-c2ccco2)c2cn(-c3ccc(Cl)cc3)nc12,-8
8,Cc1cnc(C2CCC2)n1CCNS(=O)(=O)c1ccccc1,-4
9,O=C(Nc1ccc(F)cc1)c1c(-c2ccc(Cl)cc2)nc2n1CCS2(=O)=O,0
10,COc1cc(CNCc2ccco2)ccc1OCc1cccc(C)c1,3
11,CCn1ncc2ccc(N[C@@H](C)C3(O)CCOCC3)cc21,2
12,O=C(N[C@H](c1ccccc1)C1CC1)C(c1ccccc1)c1ccccc1,10
13,CC1CN(C(=O)C(C(C)C)N2CC(C)OC(C)C2)CCO1 (configuration not stated),-7
14,NC(=O)C1CCN(C(=O)NC2CCCCCC2)CC1,-6
15,COc1ccnc(NCc2ccc(N3CCOCC3)cc2)n1,-3
16,CCCNC(=O)Cn1nc2cc(-c3ccc(OC)cc3)nc(C)n2c1=O,-11
17,CC[C@@H](C(=O)Nc1cccc(C(F)(F)F)c1)n1c(C)nc2onc(C)c2c1=O,12
18,COCc1nsc(N2CC(C)OC3(CCCOC3)C2)n1 (configuration not stated),-2
19,Oc1ccc(Br)cc1-c1nc2cnccn2c1NC1CCCCC1,25
20,Brc1cnn(Cc2cnc(NC3C4CCOC4C34CCC4)s2)c1 (configuration not stated),1
21,Cc1nn(C)cc1-c1cc(-c2nnc(Nc3ccn(Cc4ccccc4Cl)n3)s2)no1,16
22,Cc1cc(C)n(-c2ccc(-c3nnc(-c4cc5cc(Oc6ccccc6)ccc5[nH]4)s3)cc2)n1,5
23,CC(C)(C)n1ncnc1NC(=O)c1cc(Cl)cc(Cl)c1,29
24,COc1cc(CNCCCN2CCOCC2)ccc1OCc1ccc(Cl)cc1,34
25,O=C(NCc1ccccn1)c1cc(C(F)(F)F)cc(C(=O)Nc2ccccc2)n1,8
26,O=C(Nc1ccncc1)c1ccc2ccccc2n1,0
